First the molecules themselves.
B1: GPR68, Q15743 (parent)
chain: MGNITADNSSMSCTIDHTIHQTLAPVVYVTVLVVGFPANCLSLYFGYLQIKARNELGVYLCNLTVADLFYICSLPFWLQYVLQHDNWSHGDLSCQVCGILLYENIYISVGFLCCISVDRYLAVAHPFRFHQFRTLKAAVGVSVVIWAKELLTSIYFLMHEEVIEDENQHRVCFEHYPIQAWQRAINYYRFLVGFLFPICLLLASYQGILRAVRRSHGTQKSRKDQIQRLVLSTVVIFLACFLPYHVLLLVRSVWEASCDFAKGVFNAYHFSLLLTSFNCVADPVLYCFVSETTHRDLARLRGACLAFLTCSRTGRAREAYPLGAPEASGKSGAQGEEPELLTKLHPAFQTPNSPGSGGFPTGRLA

Variants of B1 are the subject of data set [1]. Description: cAMP reporter score (Enrich2 score, wild type = 0); higher = more signal; HEK293T, FACS bins.
The variants in data set [2] derive from B1. Description: surface expression score (Enrich2 score, wild type = 0); higher = more signal; HEK293T, FACS bins.

Scores with a large standard error are left out. The source holds two more conditions with little spread; they are left out. In variant names, del marks residues removed and ins residues inserted between the two positions. For some assays here: The data file names ogerin without a concentration.

On to D67_F69del, for which the cAMP reporter score in data set [1] (pH 5.5) was -1.4; in data set [1] (pH 6) it was -1.54; in data set [1] (pH 6, modulator: ogerin), -0.785; in data set [1] (pH 6.5, modulator: ogerin), -0.983. In data set [2], the surface expression score is -1.99.

As to C72_L74del, the cAMP reporter score in data set [1] (pH 5.5) was -1.64; in data set [1] (pH 6, modulator: ogerin), -1.59. For the same variant, the surface expression score in data set [2] was -1.96.

In the case of Y70_C72del, the cAMP reporter score is -0.796 in data set [1] (pH 5.5); -0.368 in data set [1] (pH 6); -1.54 in data set [1] (pH 6, modulator: ogerin); -1.15 in data set [1] (pH 6.5, modulator: ogerin). In addition, the surface expression score in data set [2] is -1.98.

For P75_F76insGSG, the cAMP reporter score was -1.52 in data set [1] (pH 5.5); -0.836 in data set [1] (pH 6); -2.01 in data set [1] (pH 6, modulator: ogerin); -1.75 in data set [1] (pH 6.5, modulator: ogerin). The surface expression score in data set [2] is -2.44.

Consider I71del, for which the cAMP reporter score in data set [1] (pH 5.5) was -2.04; in data set [1] (pH 6), -1.75; in data set [1] (pH 6, modulator: ogerin), -1.89; in data set [1] (pH 6.5, modulator: ogerin), -1.02. In data set [2], the surface expression score was -2.38.

As for L68_F69del, the cAMP reporter score in data set [1] (pH 5.5) was -1.01; in data set [1] (pH 6), -0.944; in data set [1] (pH 6, modulator: ogerin) it was -0.972; in data set [1] (pH 6.5, modulator: ogerin) it was -0.527. In addition, the surface expression score in data set [2] was -2.62.

As for L68_Y70del, the cAMP reporter score in data set [1] (pH 5.5) was -1.99; in data set [1] (pH 6) it was -0.679; in data set [1] (pH 6, modulator: ogerin), -2.17; in data set [1] (pH 6.5, modulator: ogerin) it was -1.12. In addition, the surface expression score in data set [2] is -1.4.

Turning to P75_W77del, the cAMP reporter score is -0.738 in data set [1] (pH 5.5); -1.22 in data set [1] (pH 6); -0.436 in data set [1] (pH 6.5, modulator: ogerin).

For F69_I71del, the cAMP reporter score is -1.13 in data set [1] (pH 5.5); -1.38 in data set [1] (pH 6); -0.619 in data set [1] (pH 6.5, modulator: ogerin). In addition, the surface expression score in data set [2] is -2.8.

Consider W77_L78insG, for which the cAMP reporter score in data set [1] (pH 5.5) is -1.94; in data set [1] (pH 6), -0.787; in data set [1] (pH 6, modulator: ogerin) it was -2.13; in data set [1] (pH 6.5, modulator: ogerin), -0.81. In data set [2], the surface expression score was -1.26.

In the case of Y70G, the cAMP reporter score in data set [1] (pH 5.5) is -1.13; in data set [1] (pH 6, modulator: ogerin), -1.16; in data set [1] (pH 6.5, modulator: ogerin), -0.907.

For the variant Y70S, the cAMP reporter score in data set [1] (pH 5.5) is -1; in data set [1] (pH 6, modulator: ogerin), -1.29; in data set [1] (pH 6.5, modulator: ogerin), -0.639. Moreover, the surface expression score in data set [2] is -1.3.

Take Y70F: the cAMP reporter score in data set [1] (pH 5.5) is -0.489; in data set [1] (pH 6) it was -0.586; in data set [1] (pH 6, modulator: ogerin), -0.778; in data set [1] (pH 6.5, modulator: ogerin), -0.556. For the same variant, in data set [2], the surface expression score was 1.17.

In the case of Y70D, the cAMP reporter score is -0.082 in data set [1] (pH 5.5); -1.4 in data set [1] (pH 6); -0.796 in data set [1] (pH 6, modulator: ogerin); -0.433 in data set [1] (pH 6.5, modulator: ogerin). The surface expression score in data set [2] is -2.75.

Turning to Y70C, the cAMP reporter score in data set [1] (pH 5.5) is -0.861; in data set [1] (pH 6) it was -0.956; in data set [1] (pH 6, modulator: ogerin), -0.92; in data set [1] (pH 6.5, modulator: ogerin) it was -0.924. In data set [2], the surface expression score was -0.591.

For the variant Y70H, the cAMP reporter score in data set [1] (pH 5.5) is -0.417; in data set [1] (pH 6) it was -0.4; in data set [1] (pH 6, modulator: ogerin), -0.693; in data set [1] (pH 6.5, modulator: ogerin), -0.335. The surface expression score in data set [2] was -0.296.

Consider Y70T, for which the cAMP reporter score in data set [1] (pH 5.5) is -0.009; in data set [1] (pH 6), 0.921; in data set [1] (pH 6, modulator: ogerin), -0.358; in data set [1] (pH 6.5, modulator: ogerin), -0.724. The surface expression score in data set [2] was -0.35.

Y70W: the cAMP reporter score is -1.64 in data set [1] (pH 5.5); -1.48 in data set [1] (pH 6); -1.53 in data set [1] (pH 6.5, modulator: ogerin). The surface expression score in data set [2] came to 0.333.

Take Y70N: the cAMP reporter score in data set [1] (pH 5.5) is 0.718; in data set [1] (pH 6, modulator: ogerin), -0.057; in data set [1] (pH 6.5, modulator: ogerin), 1.83. For the same variant, the surface expression score in data set [2] is -2.05.

On to Y70A, for which the cAMP reporter score in data set [1] (pH 5.5) is -0.449; in data set [1] (pH 6), -1.53; in data set [1] (pH 6, modulator: ogerin), -1.23; in data set [1] (pH 6.5, modulator: ogerin), -1.23. Besides, the surface expression score in data set [2] was -0.896.

Y70V: the cAMP reporter score in data set [1] (pH 5.5) was -0.744; in data set [1] (pH 6) it was -1.17; in data set [1] (pH 6, modulator: ogerin), -0.221; in data set [1] (pH 6.5, modulator: ogerin), -0.735. In addition, the surface expression score in data set [2] is -0.422.

For Y70I, the cAMP reporter score in data set [1] (pH 5.5) is -0.185; in data set [1] (pH 6), 0.598; in data set [1] (pH 6, modulator: ogerin) it was 0.749; in data set [1] (pH 6.5, modulator: ogerin), 0.659.

On to Y70Q, for which the cAMP reporter score in data set [1] (pH 5.5) was 0.307.

On to Y70E, for which the cAMP reporter score in data set [1] (pH 5.5) was -0.965; in data set [1] (pH 6) it was -0.762; in data set [1] (pH 6, modulator: ogerin), -1.2; in data set [1] (pH 6.5, modulator: ogerin), -0.178. In data set [2], the surface expression score was -2.48.

In the case of Y70M, the cAMP reporter score in data set [1] (pH 5.5) is -0.224; in data set [1] (pH 6), -0.146; in data set [1] (pH 6, modulator: ogerin), -0.896; in data set [1] (pH 6.5, modulator: ogerin), -0.333. Also, the surface expression score in data set [2] came out at 0.02.

Turning to Y70R, the cAMP reporter score was -4.62 in data set [1] (pH 5.5); -1.42 in data set [1] (pH 6, modulator: ogerin); -2.2 in data set [1] (pH 6.5, modulator: ogerin). In data set [2], the surface expression score stood at 0.02.

As for Y70P, the cAMP reporter score in data set [1] (pH 5.5) was -0.718; in data set [1] (pH 6), -0.444; in data set [1] (pH 6, modulator: ogerin), -0.621; in data set [1] (pH 6.5, modulator: ogerin), -1.67. Moreover, in data set [2], the surface expression score is -2.53.

Turning to Y70L, the cAMP reporter score in data set [1] (pH 5.5) is -0.555; in data set [1] (pH 6), -0.551; in data set [1] (pH 6, modulator: ogerin), -1.03; in data set [1] (pH 6.5, modulator: ogerin), -0.894. The surface expression score in data set [2] turned out to be 1.44.

As to S73_L74del, the cAMP reporter score is -2.32 in data set [1] (pH 5.5); -1.53 in data set [1] (pH 6); -2.17 in data set [1] (pH 6, modulator: ogerin); -1.25 in data set [1] (pH 6.5, modulator: ogerin). Further, in data set [2], the surface expression score is -2.98.

For the variant F76_W77insGSG, the cAMP reporter score was -1.55 in data set [1] (pH 5.5); -1.72 in data set [1] (pH 6); -1.59 in data set [1] (pH 6, modulator: ogerin); -1.64 in data set [1] (pH 6.5, modulator: ogerin). For the same variant, the surface expression score in data set [2] is -1.71.

Consider I71_C72insG, for which the cAMP reporter score in data set [1] (pH 5.5) was -1.5; in data set [1] (pH 6), -2.05; in data set [1] (pH 6, modulator: ogerin), -0.113; in data set [1] (pH 6.5, modulator: ogerin) it was -0.529. Moreover, the surface expression score in data set [2] is -1.52.

Turning to L68_F69insG, the cAMP reporter score in data set [1] (pH 5.5) was -0.876; in data set [1] (pH 6), -0.474; in data set [1] (pH 6.5, modulator: ogerin) it was 0.08. In addition, the surface expression score in data set [2] is -3.1.

Take L74_P75del: the cAMP reporter score was -1.15 in data set [1] (pH 5.5); -0.735 in data set [1] (pH 6, modulator: ogerin); -1.04 in data set [1] (pH 6.5, modulator: ogerin).
